Laboratory results as given in PubChem BioAssay AID624417 (National Center for Advancing Translational Sciences (NCATS), 2012).
The campaign covered roughly 410,000 compounds. About 6,400 (1.6%) were called active. The shares of active, inactive and inconclusive entries below differ from those in the screen. Calls come from the whole dose curve; as a rule, active = well fitted inhibition curve with a large enough effect; inconclusive = small, poorly fitted or top-dose-only effect; inactive = no such curve, though single readings can be large or run the other way. Potencies of inconclusive entries are left out as doubtful fits.
% is set by controls: 0 for no effect and ±100 for the full control effect; potency is the fitted concentration of half-maximal effect; tags give direction and shape of the fitted curve.
Note: nearly all actives have a fitted effect of over 55% in size.

Each molecule was assayed against Glucagon-like peptide 1 receptor (Homo sapiens) (UniProt P43220) (assay: qHTS of GLP-1 Receptor Inverse Agonists (Inhibition Mode)). Conditions: HEK293 GLP-1R CRE-luciferase, luminescence, 24 h, GLP-1R form is constitutively active; activity change, negative = inhibition: at 38.3 µM (top of the series) unless noted.
UniProt P43220, sequence (P43220 whole entry, looked up): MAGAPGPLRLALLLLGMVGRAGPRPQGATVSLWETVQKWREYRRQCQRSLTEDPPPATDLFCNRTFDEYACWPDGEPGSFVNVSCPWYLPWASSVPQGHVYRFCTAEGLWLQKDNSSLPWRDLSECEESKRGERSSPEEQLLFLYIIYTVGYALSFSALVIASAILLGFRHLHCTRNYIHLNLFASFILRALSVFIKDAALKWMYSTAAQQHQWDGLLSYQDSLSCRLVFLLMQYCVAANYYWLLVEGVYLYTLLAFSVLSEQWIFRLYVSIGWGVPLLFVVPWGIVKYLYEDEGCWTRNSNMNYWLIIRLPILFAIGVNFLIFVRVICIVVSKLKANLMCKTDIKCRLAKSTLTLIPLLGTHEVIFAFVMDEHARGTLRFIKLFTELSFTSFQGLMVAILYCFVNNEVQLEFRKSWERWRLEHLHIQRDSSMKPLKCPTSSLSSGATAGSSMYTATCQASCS
Summary of the method: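 HEK293 cells stably co-expressing a cAMP-responsive luciferase reporter and constitutively active GLP-1R were seeded, incubated 12 h, then exposed to compounds for 24 h at 37 C. Luminescence was read 12 min after detection reagent; inverse agonists lower signal.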
For N#CCCN1CCN(CCC#N)C1=S, the “activity change, negative = inhibition” value was inactive: 14.4%. For OC12CCCCC1C(c1ccc3c(c1)OCO3)N(Cc1ccc(F)cc1)CC2 (stereo not given), the Potency was inconclusive [inhibitor, single point]. COC(=O)c1cc(-c2ccc(C)o2)nc2ccccc12 was tested, and the “activity change, negative = inhibition” value was inactive: 16.1%. For CN(CC(=O)NCc1ccc(F)cc1)CC(=O)Nc1ccc(Cl)c(C(F)(F)F)c1, the Potency was inconclusive [inhibitor, partial curve, poor fit]. For CCN(CC(=O)NCc1ccc(Cl)cc1)C(=O)/C=C/c1ccc(Cl)c([N+](=O)[O-])c1, the Potency was inconclusive [inhibitor, partial curve, poor fit]. In the case of O=C1CSc2ccc(S(=O)(=O)NCc3ccc(Cl)cc3)cc2N1, the Potency is reported as inconclusive [inhibitor, partial curve, poor fit]. For CCc1ccc(OCCNC(=O)c2cc(SC)ccc2Cl)cc1, the Potency was inconclusive [inhibitor, single point]. For CCc1noc(C)c1C(=O)N1CCN(S(=O)(=O)c2ccc(C(C)C)cc2)CC1, the Potency was inconclusive [inhibitor, single point]. CC(C)CNc1nc(S(=O)(=O)c2ccccc2)c(Cl)s1 was tested, and the Potency was inconclusive [inhibitor, partial curve, poor fit]. In the case of Cc1ccccc1CCNC(=O)c1cc(C2CC2)nc2c1cnn2C(C)C, the Potency is reported as inconclusive [inhibitor, partial curve, poor fit]. In the case of Cc1ccccc1NC(=O)c1nnn(-c2ccc3c(c2)OCCO3)c1N, the “activity change, negative = inhibition” value is reported as inactive: -10.8%. CC1CCc2c(sc3nnn(Cc4cccc(C(=O)OC(C)C)c4)c(=O)c23)C1 (stereo not given) was tested, and the “activity change, negative = inhibition” value was inactive: -4.96%. With CC1CC(C)CN(S(=O)(=O)c2ccc(NC(=O)C3COc4ccccc4O3)cc2)C1 (stereo not given) the Potency was inconclusive [inhibitor, partial curve, poor fit]. In the case of CSc1ccc(CCNC(=O)c2cccc3c2C(=O)N(C2CCCCC2)C3)cc1, the Potency is reported as inconclusive [inhibitor, partial curve, poor fit]. For O=C(CN1CCN(C(=O)C2CCCO2)CC1)Nc1ccc(Br)cc1 (stereo not given), the “activity change, negative = inhibition” value was inactive: 25.2%. Brc1cccc(CNc2nc3ccccc3n2CCN2CCCCC2)c1 was tested, and the Potency was inconclusive [inhibitor, partial curve, poor fit]. In the case of CCCSc1oc(-c2ccco2)nc1S(=O)(=O)c1ccc(Br)cc1, the Potency is reported as inconclusive [inhibitor, single point]. Cn1c(-n2cccc2)c(-c2c(-c3ccc(F)cc3)[nH]c3c2c(=O)n(C)c(=O)n3C)c(=O)n(C)c1=O was tested, and the “activity change, negative = inhibition” value was inactive: 4.98%. In the case of COCCCNC(=O)Cn1nc(N2CCN(c3ccccc3)CC2)ccc1=O, the “activity change, negative = inhibition” value is reported as inactive: 9.87%. For Cc1cc(C(=O)OC(C)C(=O)N2CCc3ccccc32)ccc1[N+](=O)[O-] (stereo not given), the Potency was inconclusive [inhibitor, partial curve, poor fit]. CCn1c(N2CCN(CC(=O)Nc3cccc(C)c3C)CC2)nc2ccccc21 was tested, and the Potency was inconclusive [inhibitor, single point]. CCOC(=O)c1c(NC(=O)COC(=O)CCOc2ccccc2C)sc(C(=O)NC)c1C was tested, and the “activity change, negative = inhibition” value was inactive: 15.3%. NNC(=S)NC1CCCCC1 was tested, and the Potency was inconclusive [inhibitor, single point]. O=C(Nc1cccc(-c2nc3ccccc3[nH]2)c1)c1ccccn1 was tested, and the Potency was inconclusive [inhibitor, single point]. In the case of Cc1ccc(S(=O)(=O)N2CCC(=O)N([C@H](COCc3cccc(C)c3)C(C)C)CC2)cc1, the Potency is reported as inconclusive [inhibitor, partial curve, poor fit]. For O=C1NC(c2ccccc2)=C(c2ccc3ccccc3n2)C(c2ccccc2)N1 (stereo not given), the Potency was inconclusive [inhibitor, single point]. For CCS(=O)(=O)c1ccc2oc(Nc3ccccc3Cl)nc2c1, the Potency was inconclusive [inhibitor, single point]. In the case of Cc1ccc(Nc2nc(C)nc3c2oc2ccccc23)cc1, the Potency is reported as inconclusive [inhibitor, full curve]. For O=[N+]([O-])c1cccc(NC(=S)N2CCN(S(=O)(=O)c3ccccc3)CC2)c1, the Potency was inconclusive [inhibitor, single point]. In the case of Cc1ccc(Cl)cc1N1CCN(C(=O)Cc2cn(C)c3ccccc23)CC1, the Potency is reported as inconclusive [inhibitor, partial curve, poor fit]. For COc1ccc(Cn2c(CO)cnc2SCC(=O)Nc2ccc3c(c2)OCCO3)cc1, the “activity change, negative = inhibition” value was inactive: -4.89%. In the case of C/C(Cn1nc([N+](=O)[O-])cc1C)=N\NC(=O)c1ccc(O)cc1O, the “activity change, negative = inhibition” value is reported as inactive: -11.5%. C=CCCC1(C)C(=O)N(c2ccccc2)c2ccccc21 (stereo not given) was tested, and the Potency was inconclusive [inhibitor, partial curve, poor fit]. In the case of Cn1c(=N)n(CC(=O)c2ccc(F)cc2)c2ccccc21, the activity change, negative = inhibition is reported as inconclusive: -89.1% [inhibitor]. In the case of O=C(O)Cn1c(-c2cccs2)cc2cc(Cl)ccc21, the “activity change, negative = inhibition” value is reported as inactive: -16.5%. For CCCCN(C)Cc1c(C(=O)N2CCc3ccccc3C2)nc2ccc(Cl)cn12, the Potency was inconclusive [inhibitor, single point]. With Cn1cnc(S(=O)(=O)N2CCCCC2c2cc(C(=O)Nc3ccc(F)c(Cl)c3)no2)c1 (stereo not given) the Potency was inconclusive [inhibitor, single point]. With O=C(CSc1cccc(C(F)(F)F)c1)Nc1cc(S(=O)(=O)N2CCCC2)ccc1Cl the Potency was inconclusive [inhibitor, single point]. With CCOc1ccccc1NC(=O)C(CC(C)C)NC(=O)C1CCC(C)CC1 (stereo not given) the Potency was inconclusive [inhibitor, full curve, poor fit]. With N/C(=N\OC(=O)c1ccco1)c1ccc(Br)cc1 the “activity change, negative = inhibition” value was inactive: 59.6%. For CCN(CC)CC(=O)Nc1ccc(Oc2ccc(NC(=O)CN(CC)CC)cc2)cc1, the Potency was inconclusive [inhibitor, partial curve, poor fit]. In the case of Cc1cc(C)c(S(=O)(=O)N2CCN(c3ccc([N+](=O)[O-])c(NCC4CCCO4)c3)CC2)c(C)c1 (stereo not given), the Potency is reported as inconclusive [inhibitor, partial curve, poor fit]. With NC(=O)COC(=O)c1cc(=O)[nH]c2ccccc12 the Potency was inconclusive [inhibitor, partial curve, poor fit]. With CNC(=S)N/N=C/c1ccc(N(C)C)cc1 the Potency was inconclusive [inhibitor, single point]. With Cc1ccc(CN(CC(=O)N/N=C/c2ccccc2[N+](=O)[O-])S(=O)(=O)c2ccc(C)cc2)cc1 the Potency was inconclusive [inhibitor, single point]. In the case of Cc1ccc2nc(CCCc3nc4ccc(C)cc4[nH]3)[nH]c2c1, the Potency is reported as inconclusive [inhibitor, single point]. In the case of O=C(COc1cccc(NC(=O)c2ccccc2)c1)c1ccc(F)cc1, the Potency is reported as inconclusive [inhibitor, partial curve, poor fit]. In the case of Cc1ccc(NC(=O)C2(C)CCN2C(=O)C2(c3ccc(Cl)cc3)CC2)cc1 (stereo not given), the Potency is reported as inconclusive [inhibitor, single point]. O=S(c1cc(Cl)cc(Cl)c1O)c1cc(Cl)cc(Cl)c1O was tested, and the “activity change, negative = inhibition” value was inactive: 6.05%. CCOc1ccc([C@@H]2CC=C(C(=O)O)[C@H](c3ccc(F)cc3)N2S(=O)(=O)c2ccc(C)cc2)cc1 was tested, and the Potency was inconclusive [inhibitor, partial curve]. For Cc1cc(N2CCOCC2)nc2ccc(NC(=O)C3CCC(C)CC3)cc12 (stereo not given), the Potency was inconclusive [inhibitor, partial curve, poor fit]. For N#CC1=C(N)Oc2cc(O)c(C=Nc3ccccc3)cc2C1c1ccccc1 (stereo not given), the Potency was inconclusive [inhibitor, partial curve, poor fit]. For Cc1cc(NC(=O)Nc2cc(Cl)ccc2C)no1, the Potency was inconclusive [inhibitor, partial curve, poor fit]. CC(C)CCOc1ccc(C2N=C(N)Nc3nc4ccccc4n32)cc1 (stereo not given) was tested, and the Potency was inconclusive [inhibitor, single point]. In the case of Cc1nn(C(C)C(=O)NC2CCC(C)CC2)c(=O)c2c1sc1ccccc12 (stereo not given), the “activity change, negative = inhibition” value is reported as inactive: 2.76%. With COc1cc2c(cc1NC(=O)COC(=O)Cn1cnc3ccccc31)oc1ccccc12 the Potency was inconclusive [inhibitor, single point]. For O=S(=O)(NCCc1csc2nc(-c3ccccc3)nn12)c1cccs1, the “activity change, negative = inhibition” value was inactive: 1.49%. CCOC(=O)Cn1c(=O)c2c(nc3n2CCCN3Cc2ccccc2)n(C)c1=O was tested, and the Potency was inconclusive [inhibitor, single point]. In the case of CCn1nc(C)cc1-c1nnc(SCC(=O)Nc2ccccc2)n1CCCOC, the “activity change, negative = inhibition” value is reported as inactive: 9.14%. COc1ccc(C(C)=O)cc1COC(=O)CNC(=O)C1CCCCC1 was tested, and the Potency was inconclusive [inhibitor, partial curve, poor fit]. O[C@@H]1CN(CC2CCCCC2)[C@@H](c2ccccc2)C[C@H]1n1cc(C2CC2)nn1 was tested, and the “activity change, negative = inhibition” value was inactive: 4.29%. With O=C(NCc1ccccc1)c1nc(S(=O)(=O)Cc2ccc(F)cc2)ncc1Cl the Potency was inconclusive [inhibitor, single point]. O=C(NNC(=O)c1ccc2ccccc2c1O)NC1CCCCC1 was tested, and the “activity change, negative = inhibition” value was inactive: -7.73%. For COc1cc(CNC23CC4CC(CC(C4)C2)C3)ccc1OCc1ccccc1, the Potency was inconclusive [inhibitor, partial curve, poor fit]. In the case of CC(=O)Nc1sc2c(c1C(c1ccccc1Cl)N1CCN(CCO)CC1)CCCC2 (stereo not given), the Potency is reported as inconclusive [inhibitor, single point].
